± gives the standard deviation of the averaged measurements. Some of the results follow.
The sequences below were run on PfAP2-I AP2 domain 3 (GST-tagged) (assay: gcPBM binding intensity (ln(normalized median fluorescence intensity)); higher = stronger DNA binding).
Summary of the method: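 The highest Masliner-normalised natural-log median intensity across replicate spots of either probe orientation is reported as binding intensity. GST-tagged P. falciparum DNA-binding domains expressed in E. coli were applied for 1 h to an Agilent 4 × 180k array of primer-extended double-stranded 36-bp intergenic genomic probes plus negative controls, and bound protein was detected with Alexa488 anti-GST antibody and scanned at 488 nm.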

Sequence | gcPBM binding intensity (ln)
TTTTTTCATATAAATACATGCACACAAAAATATCAA [TGCATGCA_site602] | 8.61 ± 0.13
AATAACAAAATATTAACACACATAACATATTATAAA [CACACA_site2803] | 7.55 ± 0.47
TAATGTTTTTTTTGTTTACCAAAAATAATACATTAT [CACACA_negctrl_site203] | 7.49 ± 0.47
ATATATATATATGTGTGTACATATATGTGGATGGAT [XGTACX_site6240] | 9.45 ± 0.25
AGGTAGAAAAAAGACACACACATTATGTATATATAT [CACACA_site377] | 8.39 ± 0.54
TTATAGGATCAAGCGCGTACATATCTTTATAAAAGA [XGTACX_site5775] | 7.83 ± 0.55
ACATAAGAACATATTTGTACGTATATAAATTAAATA [XGTACX_site6127] | 8.11 ± 0.22
ACAACAAAAATAAGCACACACAAATATACATACATA [CACACA_site7664] | 8.23 ± 0.26
TTATATATTAATAGTAGTACTATATTGAATCACCCC [XGTACX_site2868] | 8.34 ± 0.13
TTATTTTTGTTTTGAAGTACAAAAAAATATATTCTT [XGTACX_site6416] | 7.63 ± 0.34
AAAATTTATATAAGCACACAAATATATATTTATATC [CACACA_site3291] | 7.96 ± 0.49
AGTTTATAGTGATATTGTACATATATATATATATAT [XGTACX_site572] | 9.21 ± 0.27
TATTTATACTCAACTTTCTGTTATTCCAACTTTTTT [XGTACX_negctrl_site410] | 7.73 ± 0.52
TATACTTTATATATTTTGTATATATATTTTTTTTAT [TGCATGCA_negctrl_site530] | 7.5 ± 0.28
TCTTGTTATTTAAATGCATGTTGATTTTAAAAAATT [TGCATGCA_site840] | 8.13 ± 0.61
AATAAAAAGTAATAATAACGTATAATTTATTATACT [TGCATGCA_negctrl_site414] | 7.24 ± 0.49
GTAAATTATATAACAAATAAAAATGTACATATATAT [CACACA_negctrl_site408] | 8.08 ± 0.62
ATATATATAGATTGTACACACATTTATGCATATATA [CACACA_site3222] | 8.55 ± 0.53
ACGCAATATTAACAAGTGCATTATAACACATAACAT | 11.3 ± 0.61
ATAACATTCTATGTTGCACACAAAGAGAAAAATTTA [CACACA_site9322] | 8.94 ± 0.12
ATATATATATATTATACACACAAAAATATTTTGTAT [CACACA_site266] | 9.14 ± 0.33
ATCTATGTTCCTTTTACACACATAATCTTTTTTTTA [CACACA_site5468] | 8.29 ± 0.69

Sequence | gcPBM binding intensity (ln)
CGTGGGAGCAGACACACACACACACGCATATTTATA [CACACA_site6290] | 7.71 ± 0.48
ATGGACAAAAAATATATACACACGAGGAAACCAACA [CACACA_site3726] | 8.11 ± 0.87
CATGCATACTACATCTGTACACATACATTATATTTA [XGTACX_site2495] | 8.16 ± 0.39
TTTTGTTTTTACGAATACTTTTTTAATTTTATTTAT [TGCATGCA_negctrl_site395] | 7.5 ± 0.56
ATAGTTATTTTATAGCGTACACAATAAATATATAAA [XGTACX_site4445] | 8.1 ± 0.34
CACAGAAATAGAGATACACACACACCGATATTTATG [CACACA_site9313] | 7.96 ± 0.48
GTCATATATTATAATAGTACATAAATAATTGATGCC [XGTACX_site3567] | 7.89 ± 0.35
AAATTTTCTTTTAAGTGTACGAAATTTAGTATTTCA [XGTACX_site7819] | 7.81 ± 0.45
TAAACAGTATGCAACGCATGCGTTGTTATATATAAA [TGCATGCA_site232] | 8.03 ± 0.83
ATGTATTTATTATTTAGTACACATTATTTTCTTATA [XGTACX_site6365] | 8.07 ± 0.33
TTTTTGTTTGTTCACGACTACATTATGTCATAAATG [CACACA_negctrl_site597] | 7.75 ± 0.61
TATATATAAATATATACACACATGAAAATAAATAAA [CACACA_site2514] | 7.67 ± 0.45
ATTTTTTTTTTTTTTTTTTTATTCTTAATTCATATA [CACACA_negctrl_site342] | 7.66 ± 0.42
AGTAGATATAATTATAGTACTTTGATGTTTTCTTTA [XGTACX_site5038] | 7.5 ± 0.35
ATATGATAAATTATATGTACTTAAAATATATTATAA [XGTACX_site5904] | 7.72 ± 0.3
TGGCAAAATAGGCACACACACATATACATCTATATT [CACACA_site6626] | 8.25 ± 0.4
TTTTTTTTTAGAAAAACATGCATGTCCTAAAAATAA [TGCATGCA_site684] | 7.8 ± 0.49
AAAAAAAAAAAAAAAAAAAAAAAAACAATGAATTTA [GTGCAC_negctrl_site698] | 9.88 ± 0.014
AGATATTAAAACGTTACACACATTTATATATCTTCT [CACACA_site908] | 7.59 ± 0.7
TTCCAAAATTGCATTTGTACCCAAAAAATGTATACG [XGTACX_site7680] | 7.8 ± 0.47
GTAAGTTTGAATACACGTACAAATTTATTAAAGTCC [XGTACX_site6722] | 7.89 ± 0.44
ATATTATTAATTTATAGTACTCATTTTTTTTTTTTT [XGTACX_site3536] | 7.69 ± 0.55

Sequence | gcPBM binding intensity (ln)
ATCAGTCGGCAGGACAGTACACAGTAGCCAGGAAAT [XGTACX_site2003] | 7.82 ± 0.72
GCTTTTTATTTTTACCGTACATTATATATGTATATA [XGTACX_site808] | 8.5 ± 0.75
AACGCGAACAATTTATAGATAACTTTTAATTATTAT [GTGCAC_negctrl_site179] | 7.25 ± 0.64
ATATATATATTTGTGTGTACATATTAATTTGTATGA [XGTACX_site4047] | 8.93 ± 0.11
ATGGTATATCCAAATAAACACACGTAAATACATAAA [CACACA_site1682] | 7.79 ± 0.54
ATACATTTTTGTAAAAGTACATATACATGCCCCCTT [XGTACX_site1367] | 9.145 ± 0.049
AATATATATATAGGATGTACACATAATTCAAATACA [XGTACX_site6368] | 8.02 ± 0.41
TATATATATATAAACTGTACTATTTTATGTTAAAAG [XGTACX_site3630] | 9.36 ± 0.21
ATTTAATACAAATACACACACAAATATATACATATA [CACACA_site3747] | 7.82 ± 0.43
TTTAGCCAATTTTTAAAGTTTAAAAAAGAAAAAAGA [CACACA_negctrl_site118] | 7.47 ± 0.57
TATTAAAAATACATATGTACTCATAGCATAAAACAT [XGTACX_site8686] | 7.96 ± 0.42
TTTTGGCTGATCAGATTTAACAAAAAAAAAAAAAAA [CACACA_negctrl_site671] | 8.03 ± 0.79
CAAATGTAGAAAATGTGTACATAAAAAAAAAAAAAA [XGTACX_site8276] | 8.22 ± 0.13
AGTCAATTTTGTGTGTCAACATTTATATAAAGAATG [TGCATGCA_negctrl_site400] | 7.96 ± 0.26
TGTGAAAATTATGGGGCATGCAATACTTTAAAAATA [TGCATGCA_site653] | 7.98 ± 0.72
CAAATATATATTTTCTGTACAAATACAATTAATACT [XGTACX_site2694] | 7.8 ± 0.3
CCTTCAATTTACATAACACACATTTAACCATAATAA [CACACA_site2394] | 8.17 ± 0.34
ACTAATTACTATAAAACACACATATATATATATATA [CACACA_site2591] | 9.63 ± 0.49
TTAGTCGAATGATGTACACACATACAAAACATTTAT [CACACA_site6076] | 7.93 ± 0.43
AAAAAAAAAAAAAAAAAAAAAAAAAAAAGAAAAAAG [GTGCAC_negctrl_site583] | 9.93 ± 0.099
AGAAAATATTTTGGTTGTACAGGCGATTTATATGTT [XGTACX_site7253] | 8.06 ± 0.69
TTATATTTTCAGAATAGTACACATATATACATATAT [XGTACX_site2519] | 7.82 ± 0.38

Sequence | gcPBM binding intensity (ln)
AAAAATTCTTGGCGCACACACTTTAAAAATTAAAAA [CACACA_site4498] | 8.7 ± 0.17
TTATAAAAGAAAAAAAAAAAAAAAAAAAAAAAAAAA [CACACA_negctrl_site1006] | 8.22 ± 0.86
GATCATTTAAAATAAGTAATATTTTTTTTACTTTTG [TGCATGCA_negctrl_site602] | 7.25 ± 0.6
CATATATGTTATATTTAACACACATATAAGGTACAT [CACACA_site8105] | 7.8 ± 0.42
TTTATAATTTATATCACACATATATCTGTAATAAAT [CACACA_site5048] | 7.55 ± 0.51
ATCTCTGTAAAGATCACACATATATTTTTGTTATAT [CACACA_site5094] | 7.71 ± 0.57
TATATATTATATATATGTACATATTGTTGTGTATAT [XGTACX_site767] | 7.92 ± 0.43
TTATTACACACATATGTGCACATATAAAAGTACACG [GTGCAC_site9581] | 9.965 ± 0.007
CAGCTCTTAAAAATTACACACATATACACATATATA [CACACA_site9073] | 7.5 ± 0.54
TATATATATATATATACACACATTTTTAATGATAAA [CACACA_site2695] | 9.34 ± 0.33
TATAAATACAATTCACAAGAGATCATGTATCAAACC [CACACA_negctrl_site1219] | 7.53 ± 0.61
TTTCTAGTTACAAGAGTGCATAATATATAAAAATAA [GTGCAC_site9874] | 10.9 ± 0.56
ATATAATAAATATGTTGTACTATAAAAAATAGCCAT [XGTACX_site4710] | 7.76 ± 0.34
TATTTTTAACAGTGCACACATAACTTAATTATATGT [CACACA_site2194] | 10.5 ± 0.23
GAAAGAAAATATTAAGTGCATATTTTAATGATACAA [GTGCAC_site9712] | 9.02 ± 0.2
ATAAAAATAAAAAAAACACACATACCTTATTTTTGT [CACACA_site5452] | 7.8 ± 0.57
GTGCATAAATCATACACACACACATATATATATATA [CACACA_site2423] | 10.4 ± 0.67
AAATATAAATGGTAATACACATACACACACACATAC [XGTACX_negctrl_site459] | 8.43 ± 0.16
TATAAAAAATTATGTTGTACGTAATATAAAATTTGT [XGTACX_site7122] | 8.09 ± 0.34
AATCAAAATAAATTAACACACAATTTTAATATTGTT [CACACA_site10] | 7.58 ± 0.47
ATTTTCCATATATTTTGTACATATGTATATTTTCCC [XGTACX_site7795] | 8.18 ± 0.84

Source: the supplement of paper PMC11417369
